Source: PubChem BioAssay AID1476 (National Center for Advancing Translational Sciences (NCATS), 2009)
Screen size: about 200,000 compounds; about 4,500 (2.2%) were called active. The shares of active, inactive and inconclusive entries below differ from those in the screen. Calls follow the shape of the dose curve; as a rule, active = well fitted inhibition curve with a large enough effect; inconclusive = small, poorly fitted or top-dose-only effect, or effect the other way; inactive = flat fitted curve, though single readings scatter. Potencies of inconclusive entries are doubtful fits and often do not repeat.

What follows are molecules tested against Cruzipain (Trypanosoma cruzi) (UniProt P25779) (assay: qHTS Assay for Promiscuous and Specific Inhibitors of Cruzain (without detergent)). Conditions: purified cruzain, Z-FR-AMC fluorescence, no detergent.
Sequence of UniProt P25779 (P25779 whole entry, looked up): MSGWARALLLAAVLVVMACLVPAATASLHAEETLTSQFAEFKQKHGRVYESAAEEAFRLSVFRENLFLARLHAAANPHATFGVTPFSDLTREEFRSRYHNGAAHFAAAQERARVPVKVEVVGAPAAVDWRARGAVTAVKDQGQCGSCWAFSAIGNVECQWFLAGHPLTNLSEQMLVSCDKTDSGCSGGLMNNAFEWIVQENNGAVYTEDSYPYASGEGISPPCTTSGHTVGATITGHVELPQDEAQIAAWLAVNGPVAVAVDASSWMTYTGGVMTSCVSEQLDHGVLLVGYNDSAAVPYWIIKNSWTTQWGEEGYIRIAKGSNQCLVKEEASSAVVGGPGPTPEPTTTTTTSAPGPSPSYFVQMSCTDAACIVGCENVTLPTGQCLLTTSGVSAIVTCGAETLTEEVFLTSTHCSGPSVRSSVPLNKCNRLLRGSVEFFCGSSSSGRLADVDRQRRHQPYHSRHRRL
Method in brief: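 Purified cruzain at 1.5 nM, pre-incubated 15 min with compound at room temperature in 100 mM sodium acetate pH 5.5, 5 mM DTT, 0.00005% Triton X-100. Reaction started with 2 uM Z-FR-AMC; AMC fluorescence increase over 60 s gives rate.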
Also: nearly all actives have a fitted effect of over 40% in size.
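For max response, negative = inhibition in this document: plate controls were enzyme without inhibitor for no effect and buffer without enzyme for full effect.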
Potency is read from the fitted curve at half-maximal effect; tags tell the direction and shape of the fitted curve.

Row | Structure (SMILES) | max response, negative = inhibition | Potency
1 | COc1ccc(NC(=O)CCN2CCN(CCO)CC2)c(OC)c1 | inactive: -7.52% | 
2 | O=C(c1ccc(COc2c(F)c(F)c(F)c(F)c2F)o1)N1CCN(Cc2ccc3c(c2)OCO3)CC1 |  | inconclusive: 31.6 µM [inhibitor, single point]
3 | N#Cc1ccc(Oc2ccc(-c3nc4ccccc4nc3-c3ccccc3)cc2)cc1C#N |  | inconclusive: 39.8 µM [inhibitor, single point]
4 | CCC(C)(C)C(=O)OC1CC(C)C=C2C=CC(C)C(CCC3CC(O)CC(=O)O3)C21 (configuration not stated) |  | inconclusive: 31.6 µM [activator, single point]
5 | CC(=O)c1cccc(NC(=O)c2cc(-c3ccc(C)cc3)on2)c1 |  | active: 25.1 µM
6 | Cc1ccc(CN2CCC(CNC(=O)c3cc4ccc5cccnc5c4[nH]3)CC2)cc1 | inactive: -5.21% | 
7 | CC1(C)[C@@H](O)CC[C@]2(C)[C@H]3C(=O)C=C4[C@@H]5C[C@@](C)(C(=O)O)CC[C@]5(C)CC[C@@]4(C)[C@]3(C)CC[C@@H]12 |  | inconclusive: 10 µM [activator, partial curve]
8 | Cc1cc(-n2c(C)nc3ccccc3c2=O)ccc1NC(=O)c1ccc(C)c([N+](=O)[O-])c1 | inactive: 8.01% | 
9 | Cc1ccc(C(=O)/C=C/c2cn(CC(O)CN3CCc4ccccc43)c3ccccc23)cc1 (configuration not stated) |  | active: 10 µM
10 | CCCCC(=O)Nc1nn(C)c2nc3c(C)cccc3cc12 |  | inconclusive: 39.8 µM [inhibitor, single point]
11 | CCOc1cc(C2C(C(=O)OC(C)C)=C(C)N=C3SCCC(=O)N32)ccc1OC(C)=O (configuration not stated) |  | inconclusive: 31.6 µM [activator, single point]
12 | Cc1cc(NC(=O)c2ccccc2Cl)ccc1NC(=O)c1ccccc1 | inactive: 8.92% | 
13 | CN(C)S(=O)(=O)c1ccc(C(=O)NCCS(=O)(=O)N2CCN(c3ccccc3)CC2)cc1 | inactive: 0.203% | 
14 | COc1ccc2c(c1)c(CC(=O)O)c(C)n2Cc1ccc(Cl)cc1 |  | inconclusive: 39.8 µM [activator, single point]
15 | O=C(CN1C(=O)COc2ccc(S(=O)(=O)N3CCOCC3)cc21)N1CCN(c2cccc(C(F)(F)F)c2)CC1 |  | inconclusive: 31.6 µM [activator, single point]
16 | CCOc1ccc2ncc(S(=O)(=O)c3ccc(C)cc3)c(N3CCC4(CC3)OCCO4)c2c1 |  | inconclusive: 39.8 µM [activator, single point]
17 | O=S(=O)(Nc1cccc(-c2ccc(N3CCCCCC3)nn2)c1)c1ccccc1F |  | inconclusive: 39.8 µM [inhibitor, single point]
